Data on 54 compounds can be found in PubChem BioAssay AID1645887 (National Center for Advancing Translational Sciences (NCATS), 2021).

SMILES strings stand for the structures. Values joined by “and” are separate entries in the source; they are usually repeats but may differ in a detail not shown here. Identical values can stand only once. The whole screen tested about 16,000 compounds, of which about 40 (0.2%) were called active. Not shown: some 1% with an inconclusive outcome. Calls come from the whole dose curve; as a rule, active = well fitted activation curve with a large enough effect; inconclusive = small, poorly fitted or top-dose-only effect, or another doubt; inactive = no such curve, though single readings can be large or run the other way. The list shows a part of the results.
% is set by controls: 0 for no effect and ±100 for the full control effect.

This assay deals with Rap guanine nucleotide exchange factor 4 (Homo sapiens) (UniProt Q8WZA2). Nature of the assay: Validation qHTS for agonist of cAMP-regulated guanine nucleotide exchange factor 4 (EPAC2).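 Note: exchange makes BODIPY-GDP fluorescence drop when released from Rap1B; series mostly up to about 150 µM.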 Particulars: EPAC2 Rap1B BODIPY-GDP exchange, fluorescence; activation: hits give high values. The procedure, abridged: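 Signal normalized against 6.5 mM cAMP as agonist control. Mix of EPAC2 (100 nM), RAP1B-BODIPY-GDP (250 nM) and GDP (50 uM) was read kinetically at 480/540 nm, every 5 min over 30 min, after 5 min room-temperature incubation with compound.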
UniProt Q8WZA2, sequence (Q8WZA2 whole entry, looked up): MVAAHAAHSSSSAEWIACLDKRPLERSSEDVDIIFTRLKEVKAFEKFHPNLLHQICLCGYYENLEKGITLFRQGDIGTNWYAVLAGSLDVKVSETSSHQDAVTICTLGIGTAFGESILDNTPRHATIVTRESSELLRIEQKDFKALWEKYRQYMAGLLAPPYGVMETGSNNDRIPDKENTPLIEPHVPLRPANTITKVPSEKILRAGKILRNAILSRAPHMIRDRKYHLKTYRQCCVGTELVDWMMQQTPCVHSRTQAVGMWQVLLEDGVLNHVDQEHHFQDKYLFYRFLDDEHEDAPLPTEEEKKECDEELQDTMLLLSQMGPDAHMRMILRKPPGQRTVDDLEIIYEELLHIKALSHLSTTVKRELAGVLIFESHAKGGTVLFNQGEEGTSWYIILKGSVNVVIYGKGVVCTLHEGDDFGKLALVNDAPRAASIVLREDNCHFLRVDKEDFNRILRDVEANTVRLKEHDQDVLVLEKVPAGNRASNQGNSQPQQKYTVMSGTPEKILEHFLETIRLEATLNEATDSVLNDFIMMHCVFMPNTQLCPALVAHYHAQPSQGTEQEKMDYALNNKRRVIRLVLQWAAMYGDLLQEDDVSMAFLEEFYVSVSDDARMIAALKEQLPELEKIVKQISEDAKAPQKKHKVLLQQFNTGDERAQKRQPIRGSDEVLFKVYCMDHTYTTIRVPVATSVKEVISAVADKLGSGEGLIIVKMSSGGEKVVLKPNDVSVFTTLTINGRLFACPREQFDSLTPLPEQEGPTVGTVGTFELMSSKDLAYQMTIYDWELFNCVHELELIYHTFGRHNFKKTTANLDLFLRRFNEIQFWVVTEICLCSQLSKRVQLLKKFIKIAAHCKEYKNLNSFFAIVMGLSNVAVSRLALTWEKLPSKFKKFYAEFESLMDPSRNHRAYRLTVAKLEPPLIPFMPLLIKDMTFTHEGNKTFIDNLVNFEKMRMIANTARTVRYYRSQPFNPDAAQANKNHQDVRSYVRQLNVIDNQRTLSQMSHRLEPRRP
For the compound `CN(Cc1ccco1)c1cc(-c2cccc(C#N)c2)ncn1`, the activation was inactive: -0.907%.

In the case of `O=c1c(-c2ccccc2)nc2cnc(N3CCOCC3)nc2n1C1CC1`, the activation is inactive: 7.86%. For `CCN(CC)CCOc1ccc(Cc2ccccc2)cc1` the value was inactive: -22.7% and inactive: -6.07%. Regarding `O=c1cc(-c2ccccc2)oc2cc(O)c(O)cc12`, the activation is inactive: -10.7%.

Consider `CCCCCCCCN1[C@@H](CC(=O)O)c2ccc(C(F)(F)F)cc2S1(=O)=O`, for which the activation was inactive: -38%. Turning to `CS(=O)(=O)N1CCC2(CCCN(Cc3cc(C(F)(F)F)cc(C(F)(F)F)c3)C2)CC1`, the activation was inactive: -1.72%. For `O=S(=O)(NCc1ccc(F)cc1)c1cc(Br)ccc1Br` the value was inactive: -6.36%; for `CC1OCC23CC[C@@]4(C)CCC(C)(C)C[C@H]4[C@]2(C)CCC12C3CC[C@@]1(C)C2C(=O)CC(=O)[C@@H]1C` (some centres undefined), inactive: -9.13%. Then `O=c1c(O)c(-c2cc(O)c(O)c(O)c2)oc2cc(O)cc(O)c12`, with inactive: 1.49% and inactive: -48.5% and inactive: -38.3%; and `CC(C)c1ccc(C(=O)C[N+]2(C)CCOCC2)cc1`, with inactive: -18.4%. For `N#CC(C#N)=C(N)/C(C#N)=C/c1ccc(O)cc1` the value was inactive: -20%; for `COc1cccc(Nc2ncc3nc(C)c(=O)n(C)c3n2)c1`, inactive: -3.31%. For `CCn1cc(C(=O)O)c(=O)c2cnc(N3CCNCC3)nc21`, the activation is inactive: -6.31% and inactive: 6.76%.

On to `CCCCS(=O)(=O)N[C@@H](Cc1ccc(OCCCCC2CCNCC2)cc1)C(=O)O`, for which the activation is inactive: -4.31%. Then `CCc1nc(CN2CCOc3ccc(C(O)C4CCCCC4)cc3C2)c(C)[nH]1` (centres undefined), with inactive: -13%. Then `NCCS(=O)(=O)O`, with inactive: -25.2% and inactive: -9.12% and inactive: -4.37%; and `CCN1CCCC1CNCc1cc2c(OC)c(OC)c(OC)cc2nc1N(C)C` (centres undefined), with inactive: -2.98%; and `C[C@@](N)(Cc1ccc(O)cc1)C(=O)O`, with inactive: -20.2%.

As to `CCCC[C@@H](C=O)NC(=O)[C@H](CC(C)C)NC(=O)OCc1ccccc1`, the activation is inactive: -14.7%. Then `O=C(NCc1nnc2n1CCN(Cc1cc(F)cc(F)c1)CC2)c1cccc(F)c1`, with inactive: -0.177%; and `CN(C)Cc1ccccc1-c1cc(Nc2ccccc2)ncn1`, with inactive: -10.1%. Then `OCCCc1ccccc1`, with inactive: 2.65%; and `CO/N=C(/C(=O)N[C@@H]1C(=O)N2C(C(=O)OCOC(=O)C(C)(C)C)=C(C)CS[C@H]12)c1csc(N)n1`, with inactive: -8.29%. For `Cc1noc(C)c1-c1cc(NCc2cccnc2)ncn1` the value was inactive: -10.8%; for `COc1nc(C)nc(Cl)c1NC1=NCCN1`, inactive: -7.69% and inactive: -16.5%; for `Cc1cnc(CNc2ncncc2-c2ccccc2C#N)cn1`, inactive: -12%. As for `CC(=O)N[C@@H](C=O)[C@H](O)[C@H](O)[C@@H](O)CO`, the activation was inactive: -13.3% and inactive: -5.15%. Then `CC(=O)Oc1ccc2c(c1C(C)C)CCC1C(C)(C)CCC[C@@]21C` (some centres undefined), with inactive: 18.7%; and `COc1ccc(C(=O)N2CCC[C@@]3(CCN(Cc4ccccc4OC)C3)C2)cc1`, with inactive: 2.26%. Then `O=C(CCCN1CC=C(n2c(=O)[nH]c3ccccc32)CC1)c1ccc(F)cc1`, with inactive: 3.75% and inactive: -7.24%. Then `O=c1cnc2cnc(Nc3ccccc3)nc2n1C1CC1`, with inactive: 6.8%; and `C=CC(C1=CC(=O)C=CC1=O)c1ccc(O)cc1` (centres undefined), with inactive: 8.18%.

For the compound `CC(=O)NCCNc1nc(-c2cccc(NS(C)(=O)=O)c2)nc2ccccc12`, the activation is inactive: -15.2%.

Consider `Cc1c(C(=O)NCC2(N3CCCCC3)CCCC2)cnn1-c1nccc(-c2ccccc2F)n1`, for which the activation was inactive: -1.69%. For `CCC(=O)O` the value was inactive: -12.9%; for `C=NCc1cc2c(OC[C@@H](O)CNC(C)(C)C)cccc2[nH]1`, inactive: -3.68%; for `CN(C)C(=O)c1ccc(-c2nc(NCc3cccnc3)c3ccccc3n2)cc1`, inactive: -2.74%. Then `CCN(CC)CCNC(=O)c1cc(S(C)(=O)=O)ccc1OC`, with inactive: -21.3% and inactive: 3.56% and inactive: 10.2%. Then `CCCCCCCCCCCCC/C=C\[C@@H](O)[C@H](CO)NC(C)=O`, with inactive: -54.3%; and `CCCCCCCC/C=C\CCCCCCCC(=O)N[C@@H](CO)Cc1ccc(O)cc1`, with inactive: -54.1%.

Consider `COc1cc(-c2cc(C)c3cccc(OC)c3n2)cc2c1OCCN(C(=O)Cn1nc(C)cc1C)C2`, for which the activation was inactive: -3.12%. Then `Cc1cc2c(cc1C)N[C@]1(C[C@H]3CCCC(=O)N4CC[C@@H](C1)[C@@H]34)C(=NC(C)(C)CC(C)(C)C)N2`, with inactive: -45.2%; and `Oc1c(I)cc(I)c2cccnc12`, with inactive: 4.07%. In the case of `CC1CCC(=O)N(CCSc2ccccc2)CC1` (centres undefined), the activation was inactive: -12.9%. For the compound `Cc1ccc2nc(SCC(=O)N3CCC4(CC3)CC4C(=O)Nc3ccc(F)c(F)c3)[nH]c2c1` (centres undefined), the activation was inactive: 4.21%. As for `CCCCCCCC/C=C\CCCCCCCC(=O)OC[C@@H](O)COP(=O)(O)O`, the activation is inactive: 3.17%.

For `COc1ccc(/C=C/C(=O)OCCC(C)C)cc1`, the activation is inactive: -25.4%. Then `O=C1CCN(Cc2ccccc2)CCN1[C@H](CSc1ccccc1)Cc1ccccc1`, with inactive: -15.6%. Then `C=C1CC[C@H](O)CC1=C/C=C1\CCC[C@]2(C)[C@@H]([C@H](C)CCCC(C)(C)O)CC[C@@H]12`, with inactive: -2.49%. As to `COCC(=O)N1CCC2(CCCN(c3ccc(-c4ccccc4)cc3)C2)CC1`, the activation is inactive: 4.08%. Then `COc1ccc(-c2nc3cnc(N(C)C)nc3n(C)c2=O)cc1`, with inactive: -4.52%; and `CCn1c(-c2ccccc2F)nc2cc(C(=O)N3CCCC(CO)C3)cc(NC(C)=O)c21` (centres undefined), with inactive: 7.68%. Then `CC(=O)OC1C(=O)[C@@]2(C)C(O)CC3OC[C@]3(OC(C)=O)C2C(OC(=O)c2ccccc2)[C@]2(O)CC(OC(=O)C(O)C(NC(=O)c3ccccc3)c3ccccc3)C(C)=C1C2(C)C` (some centres undefined), with inactive: -4.64%. For `COc1c2ccccc2nc2occc12` the value was inactive: -7.55%.
